Out of some 44,000 compounds screened, about 340 (0.77%) were called active. Roughly 5% stayed inconclusive and do not appear here. Calls follow the shape of the dose curve; as a rule, active = well fitted inhibition curve with a large enough effect; inconclusive = small, poorly fitted or top-dose-only effect; inactive = flat fitted curve, though single readings scatter. This is one part of the list.
Experiment: Acumen qHTS Assay for Inhibitors of the mTORC1 Signaling Pathway in MEF (Tsc2-/-, p53-/-) Cells: Sytravon;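 also: plate controls were DMSO for no effect and rapamycin for full effect; nearly all actives have a fitted effect of over 50% in size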
Conditions: phospho-rpS6 immunofluorescence/PI, 24 h; series mostly up to 38.3 µM; activity change, negative = inhibition: at the top concentration
Summary of the method: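 Readout is phospho-S6 Alexa 488 signal normalized to PI per well, reported as % active cells with thresholds set from rapamycin (7.5 nM) and DMSO controls. Cells: Tsc2-/-, p53-/- MEFs, 24 hrs compound at 37 C; PI cell number serves as viability.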

Activity change, negative = inhibition, inactive:
Cc1cc(C)c(NC(=O)CSc2nc(=O)n(Cc3ccncc3)c3c2CCC3)c(C)c1 -0.615%, COc1cccc(C2=CC(c3ccccc3F)n3ncc(C(=O)Nc4ccc(F)cc4)c3N2)c1 (stereo unspecified) 2.47%, Cc1ccc(Nc2c(-c3cccnc3)nc3ccc(C)cn23)cc1 -16.1%, O=C(CSc1nc2c([nH]c3ccccc32)c(=O)n1-c1ccccc1)Nc1cccc(C(F)(F)F)c1 -29.6%, O=C(NC1CCCCC1)c1ccc(CSc2nc3ccncc3n2Cc2cccc(F)c2)cc1 0.0393%, CCc1ccc(CNC(=O)c2ccc3c(c2)c(C)c(C)n3Cc2ccccc2)cc1 4.43%, Cc1ccc(N(C)C(=O)Cn2ncc3c([nH]c4ccccc43)c2=O)cc1C 3.14%, CCOC(=O)N1CCc2c(sc(NCc3cc(OC)ccc3OC)c2C(=O)Nc2cc(OC)ccc2OC)C1 -2.96%, CCOCCCNC(=O)C1CCN(c2nc3ccc(C)cc3[nH]2)CC1 2.68%, COC(=O)c1cc(-c2ccc(Cl)cc2)c2c(=O)[nH]c(=O)n(C)c2n1 -0.0455%, COc1ccc(NC(=O)CCc2c(C)nn(-c3ccc(N4CCCC4)nn3)c2C)cc1Cl -9.58%, COc1ccc(N2CCN(C(=O)Cn3cnc4sc(C)c(S(=O)(=O)N5CCCCC5)c4c3=O)CC2)cc1 7.28%, Cc1ccc(Cn2c(=O)n(CCc3ccccc3)c(=O)c3sc4ccccc4c32)cc1 -8.73%, Cc1ccc(NC(=O)CCn2cccn2)c(C)c1 -2.17%, COCCn1c(C)cc(O)c(C(c2ccccc2)N2CCN(c3ccccc3F)CC2)c1=O (stereo unspecified) -1.31%, CC(Nc1ccc(-c2nc(-c3cccnc3)no2)cc1[N+](=O)[O-])c1ccccc1 (stereo unspecified) 0.98%, CCS(=O)(=O)c1ccc(C(=O)N2CCN(c3nc4c(OC)ccc(C)c4s3)CC2)cc1 -6.62%, COc1ccccc1-c1nc(CNC(=O)NC2CCCCC2)c(C)o1 6.84%, COc1cccc(NC(=O)CSc2cc(C)c3ccccc3n2)c1 -10%, O=C(Cn1ncc2ccsc2c1=O)N1CCN(c2ccc(Cl)cc2)CC1 -0.0585%, Cc1ccc(NC(=O)CCn2nc(C)c3c(C)n(-c4ccccc4)nc3c2=O)cc1Cl 0.572%, CC1CCCCN1Cc1nc2c(c(=O)n(C)c(=O)n2C)n1Cc1ccc(Br)cc1 (stereo unspecified) 0.905%, Cc1ccc2c(Sc3ccc(Cl)cc3)c(C(=O)N3CCCCC3)[nH]c2c1 0.0212%, COc1ccc(NC(=O)c2c(-c3ccc(C)cc3)nnc3ccccc23)cc1OC -1.87%, CC(C)c1ccc(NC(=O)c2cn(C3CCCC3)c(=O)c3c2c2ccccc2n3C)cc1 -3.77%, CCCOc1ccc(NC(=O)CC2C(=O)N(c3cccc(OC)c3)C(=O)N2CCc2ccncc2)cc1 (stereo unspecified) -13.2%

From PubChem BioAssay AID493208 (National Center for Advancing Translational Sciences (NCATS), 2011)
